Assays:
[1] = target: T1, mouse MAdCAM expressed on cells (mouse, UniProt Q61826 22-405); test: cell binding
T1 construct: whole, on cells
T1 sequence (looked up): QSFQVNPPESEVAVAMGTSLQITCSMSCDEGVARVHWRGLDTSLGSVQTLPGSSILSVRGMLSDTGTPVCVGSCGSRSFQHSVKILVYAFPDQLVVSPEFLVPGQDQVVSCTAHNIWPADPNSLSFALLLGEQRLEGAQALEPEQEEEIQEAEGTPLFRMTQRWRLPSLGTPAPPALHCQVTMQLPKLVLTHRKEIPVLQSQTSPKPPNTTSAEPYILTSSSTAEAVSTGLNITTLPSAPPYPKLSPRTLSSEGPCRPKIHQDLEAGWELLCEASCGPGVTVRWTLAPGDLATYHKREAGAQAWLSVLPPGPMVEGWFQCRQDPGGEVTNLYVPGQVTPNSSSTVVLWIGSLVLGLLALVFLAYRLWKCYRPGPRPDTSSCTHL

[2] = target: T2, human MAdCAM expressed on cells (human, UniProt Q13477 19-382); test: cell binding
T2 construct: whole, on cells
T2 sequence (looked up): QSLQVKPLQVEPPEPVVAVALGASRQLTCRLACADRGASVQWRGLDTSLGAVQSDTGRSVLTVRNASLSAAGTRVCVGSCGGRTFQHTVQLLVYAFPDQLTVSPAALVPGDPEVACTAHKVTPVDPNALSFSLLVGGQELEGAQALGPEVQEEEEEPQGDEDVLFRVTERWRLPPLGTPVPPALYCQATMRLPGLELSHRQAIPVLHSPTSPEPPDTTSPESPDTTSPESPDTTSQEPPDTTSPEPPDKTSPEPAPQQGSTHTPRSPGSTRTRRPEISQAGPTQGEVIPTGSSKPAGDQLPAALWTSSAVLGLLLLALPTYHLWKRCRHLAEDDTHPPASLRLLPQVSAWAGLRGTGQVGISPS

[3] = target: T3, human MAdCAM protein (human, UniProt Q13477 19-317, limits assumed); test: Octet
T3 construct: also called soluble monomeric human MAdCAM; recombinant human MAdCAM
T3 sequence (looked up): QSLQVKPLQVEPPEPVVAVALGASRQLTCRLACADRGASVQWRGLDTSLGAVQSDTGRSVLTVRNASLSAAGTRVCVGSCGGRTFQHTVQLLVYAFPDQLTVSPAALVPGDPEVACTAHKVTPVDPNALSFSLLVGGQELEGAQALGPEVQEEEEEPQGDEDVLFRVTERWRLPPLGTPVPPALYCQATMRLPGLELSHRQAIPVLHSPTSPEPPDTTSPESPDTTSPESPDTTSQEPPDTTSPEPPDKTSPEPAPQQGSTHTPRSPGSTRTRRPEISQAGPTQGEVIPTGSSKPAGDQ

Measured: binding result

B1: MAdCAM antibody Table 1 clone 62 (scFv)
scFv: QVQLVQSGAEVKKPGSSVKVSCKASGGTFSSYAISWVRQAPGQGLEWMGWMEPHTGNTRYAQKFQGRVTITADESTSTAYMELSSLRSEDTAVYYCAKGGFSWFDPWGQGTLVTVSSGGGGSGGGGSGGGGSGGGG[about 100 residues not printed]FGQGTRLEIK
binds: all assays above

From US20230235004A1 (published 2023)
